The values below come from article PMC5700166.

Common to all, as to experiment: protein-binding microarray (PBM)
Conditions in all cases: PBM: ~300 nM protein, 6 mM HEPES pH 7.8, 80 mM KCl, 0.5 mM EDTA, 0.5 mM EGTA, 6% glycerol, 35 ng/ul poly-dIdC, 1% milk, 1 h, room temperature; Ap Aiptasia and Nv Nematostella (sea anemones) / Co Capsaspora / Aq Amphimedon (sponge) / Dm Drosophila / Hu human; RHD is the Rel homology domain; high values mean tight binding; most listed sequences are background and not binding sites; double strand, one strand shown

Assay [1] addresses T1, GST-Ap-NF-kB RHD (UniProt A0A913YAJ5).
T1 sequence: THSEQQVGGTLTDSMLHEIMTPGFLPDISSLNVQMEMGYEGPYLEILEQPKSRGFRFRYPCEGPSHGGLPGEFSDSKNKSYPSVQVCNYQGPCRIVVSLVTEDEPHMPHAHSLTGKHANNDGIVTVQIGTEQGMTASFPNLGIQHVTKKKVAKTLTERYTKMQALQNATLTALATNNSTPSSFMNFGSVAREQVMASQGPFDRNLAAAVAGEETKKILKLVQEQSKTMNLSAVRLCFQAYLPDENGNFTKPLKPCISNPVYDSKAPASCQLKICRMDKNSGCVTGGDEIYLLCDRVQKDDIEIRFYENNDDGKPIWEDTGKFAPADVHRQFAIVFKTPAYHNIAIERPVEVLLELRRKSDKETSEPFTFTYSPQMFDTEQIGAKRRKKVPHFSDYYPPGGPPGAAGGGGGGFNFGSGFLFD

The target of assay [2] is T2, GST-Nv-NF-kB (Cys allele) (UniProt E5G601).
T2 sequence: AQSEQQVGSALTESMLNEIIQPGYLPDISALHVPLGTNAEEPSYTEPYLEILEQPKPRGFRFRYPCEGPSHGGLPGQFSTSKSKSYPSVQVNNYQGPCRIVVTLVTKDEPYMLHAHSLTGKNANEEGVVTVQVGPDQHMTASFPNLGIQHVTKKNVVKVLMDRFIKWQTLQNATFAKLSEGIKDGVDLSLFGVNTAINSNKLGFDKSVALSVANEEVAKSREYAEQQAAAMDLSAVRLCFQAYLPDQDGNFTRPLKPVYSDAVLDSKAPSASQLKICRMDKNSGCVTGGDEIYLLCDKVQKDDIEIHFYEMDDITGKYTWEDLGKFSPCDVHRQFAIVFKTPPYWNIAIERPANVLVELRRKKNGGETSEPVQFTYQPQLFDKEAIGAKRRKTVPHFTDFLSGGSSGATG

The target of assay [3] is T3, GST-Co-NF-kB (UniProt F1ARL5).
T3 sequence: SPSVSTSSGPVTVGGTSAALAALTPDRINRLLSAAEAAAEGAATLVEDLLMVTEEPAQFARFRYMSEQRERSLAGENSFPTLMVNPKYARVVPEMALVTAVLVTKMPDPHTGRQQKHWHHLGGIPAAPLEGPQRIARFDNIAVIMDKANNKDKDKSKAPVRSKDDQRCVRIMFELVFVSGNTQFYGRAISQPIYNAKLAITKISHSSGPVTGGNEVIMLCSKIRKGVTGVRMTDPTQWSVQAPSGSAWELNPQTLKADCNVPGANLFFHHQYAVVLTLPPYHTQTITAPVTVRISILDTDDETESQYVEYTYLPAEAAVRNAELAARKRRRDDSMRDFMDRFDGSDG

For assay [4], the target named is T4, GST-Dm-Relish (UniProt Q94527).
T4 sequence: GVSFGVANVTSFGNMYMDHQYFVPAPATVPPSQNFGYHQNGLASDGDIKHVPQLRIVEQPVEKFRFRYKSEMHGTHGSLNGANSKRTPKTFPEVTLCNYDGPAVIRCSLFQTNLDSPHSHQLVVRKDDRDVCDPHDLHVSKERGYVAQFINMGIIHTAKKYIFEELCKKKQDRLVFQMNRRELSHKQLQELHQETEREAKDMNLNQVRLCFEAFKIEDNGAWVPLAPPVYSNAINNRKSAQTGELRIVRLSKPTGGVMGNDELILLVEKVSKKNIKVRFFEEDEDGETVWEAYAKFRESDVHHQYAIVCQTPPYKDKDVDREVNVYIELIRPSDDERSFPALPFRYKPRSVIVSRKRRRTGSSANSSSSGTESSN

The target in assay [5] is T5, GST-Aq-NF-kB (UniProt A9Y5G7).
T5 sequence: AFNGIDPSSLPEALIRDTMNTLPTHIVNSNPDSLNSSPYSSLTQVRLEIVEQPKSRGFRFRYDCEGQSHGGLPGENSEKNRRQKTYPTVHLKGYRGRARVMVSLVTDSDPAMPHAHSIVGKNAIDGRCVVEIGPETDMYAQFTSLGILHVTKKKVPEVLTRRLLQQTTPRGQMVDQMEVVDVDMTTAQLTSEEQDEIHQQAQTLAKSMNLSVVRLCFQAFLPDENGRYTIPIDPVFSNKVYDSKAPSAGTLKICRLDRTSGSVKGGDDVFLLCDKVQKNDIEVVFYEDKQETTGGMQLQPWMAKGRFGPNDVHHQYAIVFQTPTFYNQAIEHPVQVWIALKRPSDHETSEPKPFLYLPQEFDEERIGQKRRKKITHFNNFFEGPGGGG

The list shows a part of the results, in another mix than the full data. The list includes weakly bound sequences.

On to “CCGATTAACATCACTAGAATTCCTGATGTTAATCGGGTCTTGATTCGCTTGACGCTGCTG”, for which the binding signal was 0.0226 z-score in assay [1]; -0.106 z-score in assay [2]; 0.408 z-score in assay [3]; 0.645 z-score in assay [4]; 0.404 z-score in assay [5].

Consider “CCGATTAACATCAAGATCGCGAATGATGTTAATCGGGTCTTGATTCGCTTGACGCTGCTG”, for which the binding signal in assay [1] was -0.812 z-score; in assay [2], -0.245 z-score; in assay [3], -1.21 z-score; in assay [4], -0.843 z-score; in assay [5], -0.539 z-score.

“CCGATTAACATCATATTGGATCTTGATGTTAATCGGGTCTTGATTCGCTTGACGCTGCTG”: the binding signal in assay [1] is -0.59 z-score; in assay [2], -0.405 z-score; in assay [3], -0.502 z-score; in assay [4], -0.719 z-score; in assay [5] it was -0.4 z-score.

For the sequence “CCGATTAACATCATTGAGACGCTTGATGTTAATCGGGTCTTGATTCGCTTGACGCTGCTG”, the binding signal in assay [1] is -0.276 z-score; in assay [2] it was -0.404 z-score; in assay [3], -1.25 z-score; in assay [4], -1.12 z-score; in assay [5], -0.646 z-score.

Consider “CCGATTAACATCAGCAAAATTCCTGATGTTAATCGGGTCTTGATTCGCTTGACGCTGCTG”, for which the binding signal in assay [1] was -0.345 z-score; in assay [2] it was -0.0749 z-score; in assay [3], -0.779 z-score; in assay [4], 0.903 z-score; in assay [5], 1.04 z-score.

Consider “CCGATTAACATCATAAAATTCCATGATGTTAATCGGGTCTTGATTCGCTTGACGCTGCTG”, for which the binding signal in assay [1] is -0.287 z-score; in assay [2] it was 0.391 z-score; in assay [3], -0.35 z-score; in assay [4] it was 1.32 z-score; in assay [5] it was 1.26 z-score.

Turning to “CCGATTAACATCAGAATTTTTCCTGATGTTAATCGGGTCTTGATTCGCTTGACGCTGCTG”, the binding signal in assay [1] is -0.428 z-score; in assay [2], 0.19 z-score; in assay [3], 0.617 z-score; in assay [4] it was 0.691 z-score; in assay [5], 0.549 z-score.

Take “CCGATTAACATCACGTATGGTACTGATGTTAATCGGGTCTTGATTCGCTTGACGCTGCTG”: the binding signal in assay [1] was 0.149 z-score; in assay [2], 0.485 z-score; in assay [3], -0.3 z-score; in assay [4], 0.349 z-score; in assay [5], -0.0355 z-score.

On to “CCGATTAACATCACCGGAGATCTTGATGTTAATCGGGTCTTGATTCGCTTGACGCTGCTG”, for which the binding signal in assay [1] was 0.364 z-score; in assay [2], -0.553 z-score; in assay [3] it was 0.185 z-score; in assay [4], 0.311 z-score; in assay [5] it was 0.241 z-score.

Regarding “CCGATTAACATCAATTCGTGTAATGATGTTAATCGGGTCTTGATTCGCTTGACGCTGCTG”, the binding signal in assay [1] is -0.705 z-score; in assay [2], -0.369 z-score; in assay [3] it was -0.182 z-score; in assay [4], -0.355 z-score; in assay [5], -0.691 z-score.

With “CCGATTAACATCAAGGCAAAGGCTGATGTTAATCGGGTCTTGATTCGCTTGACGCTGCTG”, the binding signal is -0.594 z-score in assay [1]; -0.265 z-score in assay [2]; -0.514 z-score in assay [3]; -0.924 z-score in assay [4]; -0.745 z-score in assay [5].

In the case of “CCGATTAACATCAGATGGCGACTTGATGTTAATCGGGTCTTGATTCGCTTGACGCTGCTG”, the binding signal was -0.526 z-score in assay [1]; -0.787 z-score in assay [2]; -0.567 z-score in assay [3]; -0.421 z-score in assay [4]; -0.426 z-score in assay [5].

With “CCGATTAACATCACCGAATTTCCTGATGTTAATCGGGTCTTGATTCGCTTGACGCTGCTG”, the binding signal in assay [1] came out at 0.888 z-score; in assay [2] it was 0.173 z-score; in assay [3] it was 0.319 z-score; in assay [4] it was 0.886 z-score; in assay [5], 0.97 z-score.

Turning to “CCGATTAACATCACAGACCCGACTGATGTTAATCGGGTCTTGATTCGCTTGACGCTGCTG”, the binding signal in assay [1] was 0.0401 z-score; in assay [2] it was 0.216 z-score; in assay [3], -0.48 z-score; in assay [4] it was -0.12 z-score; in assay [5], 0.053 z-score.
